For 33 sequences, binding signal (RPM ratio (pull-down/input)) results are on record in PMC12820563.

The other results are listed elsewhere or left out. The list includes weakly bound sequences.

The experiment deals with T1, MBP-FoxP3dN (UniProt Q99JB6).
T1 sequence: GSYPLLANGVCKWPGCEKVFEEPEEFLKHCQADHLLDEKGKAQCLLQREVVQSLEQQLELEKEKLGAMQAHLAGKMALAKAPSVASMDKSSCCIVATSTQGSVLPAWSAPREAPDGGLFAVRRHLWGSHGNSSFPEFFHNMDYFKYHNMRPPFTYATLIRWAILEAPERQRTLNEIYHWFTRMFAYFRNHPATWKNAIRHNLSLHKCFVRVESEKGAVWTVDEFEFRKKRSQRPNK
Briefly: PD-seq (MBP pull-down with sequencing). The following applies: 20 mM Tris-HCl pH 7.5, 100 mM NaCl, 1.5 mM MgCl2, 0.4 uM protein, 0.1 uM dsDNA library, 30 min, room temperature, amylose pull-down; high values mean tight binding; double strand, one strand shown.
As to “GATGATTGTTCTCCCAGCTGATGAATTGTTCTTCTCGAGTAAACAAATTTTCCTAATCTTTCTGTTCAAGCGCCATCTAC”, the binding signal (RPM ratio (pull-down/input)) was found to be 0.401.

Turning to “GATGATTGTTCTCCCAGCTGATGAATTTCAAAAATCGAGTAAACAAATTTTCCTAATCTTTCTGTTCAAGCGCCATCTAC”, the binding signal (RPM ratio (pull-down/input)) was determined as 0.161.

For “GATGATTGTTCTCCCAGCTGATGAATTACAAGCGTCGAGTAAACAAATTTTCCTAATCTTTCTGTTCAAGCGCCATCTAC”, the binding signal (RPM ratio (pull-down/input)) stood at 0.713.

As for “GATGATTGTTCTCCCAGCTGATGAATTGATACCGTCGAGTAAACAAATTTTCCTAATCTTTCTGTTCAAGCGCCATCTAC”, the binding signal (RPM ratio (pull-down/input)) is 0.617.

Regarding “GATGATTGTTCTCCCAGCTGATGAATTTTGTCGCTCGAGTAAACAAATTTTCCTAATCTTTCTGTTCAAGCGCCATCTAC”, the binding signal (RPM ratio (pull-down/input)) was determined as 1.79.

As for “GATGATTGTTCTCCCAGCTGATGAATTAAGGATCTCGAGTAAACAAATTTTCCTAATCTTTCTGTTCAAGCGCCATCTAC”, the binding signal (RPM ratio (pull-down/input)) was 0.284.

Regarding “GATGATTGTTCTCCCAGCTGATGAATTAGTCAGCTCGAGTAAACAAATTTTCCTAATCTTTCTGTTCAAGCGCCATCTAC”, the binding signal (RPM ratio (pull-down/input)) was 0.563.

Turning to “GATGATTGTTCTCCCAGCTGATGAATTCATCTTCTCGAGTAAACAAATTTTCCTAATCTTTCTGTTCAAGCGCCATCTAC”, the binding signal (RPM ratio (pull-down/input)) amounted to 0.431.

In the case of “GATGATTGTTCTCCCAGCTGATGAATTGTCCTGATCGAGTAAACAAATTTTCCTAATCTTTCTGTTCAAGCGCCATCTAC”, the binding signal (RPM ratio (pull-down/input)) is 0.262.

Regarding “GATGATTGTTCTCCCAGCTGATGAATTGCATTGTTCGAGTAAACAAATTTTCCTAATCTTTCTGTTCAAGCGCCATCTAC”, the binding signal (RPM ratio (pull-down/input)) came to 4.05.

As for “GATGATTGTTCTCCCAGCTGATGAATTCCACAACTCGAGTAAACAAATTTTCCTAATCTTTCTGTTCAAGCGCCATCTAC”, the binding signal (RPM ratio (pull-down/input)) was determined as 0.4.

On to “GATGATTGTTCTCCCAGCTGATGAATTCCGGGCCTCGAGTAAACAAATTTTCCTAATCTTTCTGTTCAAGCGCCATCTAC”, for which the binding signal (RPM ratio (pull-down/input)) amounted to 0.367.

Take “GATGATTGTTCTCCCAGCTGATGAATTAATAGTGTCGAGTAAACAAATTTTCCTAATCTTTCTGTTCAAGCGCCATCTAC”: the binding signal (RPM ratio (pull-down/input)) is 0.89.

For the sequence “GATGATTGTTCTCCCAGCTGATGAATTATCGTACTCGAGTAAACAAATTTTCCTAATCTTTCTGTTCAAGCGCCATCTAC”, the binding signal (RPM ratio (pull-down/input)) was determined as 0.505.

Consider “GATGATTGTTCTCCCAGCTGATGAATTTCCGCGGTCGAGTAAACAAATTTTCCTAATCTTTCTGTTCAAGCGCCATCTAC”, for which the binding signal (RPM ratio (pull-down/input)) was determined as 0.24.

Regarding “GATGATTGTTCTCCCAGCTGATGAATTCCTTCGCTCGAGTAAACAAATTTTCCTAATCTTTCTGTTCAAGCGCCATCTAC”, the binding signal (RPM ratio (pull-down/input)) is 0.236.

In the case of “GATGATTGTTCTCCCAGCTGATGAATTCACGTAGTCGAGTAAACAAATTTTCCTAATCTTTCTGTTCAAGCGCCATCTAC”, the binding signal (RPM ratio (pull-down/input)) came to 0.315.

Regarding “GATGATTGTTCTCCCAGCTGATGAATTCTACTCGTCGAGTAAACAAATTTTCCTAATCTTTCTGTTCAAGCGCCATCTAC”, the binding signal (RPM ratio (pull-down/input)) was 0.353.

In the case of “GATGATTGTTCTCCCAGCTGATGAATTAACTTTCTCGAGTAAACAAATTTTCCTAATCTTTCTGTTCAAGCGCCATCTAC”, the binding signal (RPM ratio (pull-down/input)) was 0.428.

Consider “GATGATTGTTCTCCCAGCTGATGAATTAACTGTTTCGAGTAAACAAATTTTCCTAATCTTTCTGTTCAAGCGCCATCTAC”, for which the binding signal (RPM ratio (pull-down/input)) was 0.641.

Regarding “GATGATTGTTCTCCCAGCTGATGAATTTCGGCACTCGAGTAAACAAATTTTCCTAATCTTTCTGTTCAAGCGCCATCTAC”, the binding signal (RPM ratio (pull-down/input)) worked out at 0.458.

Regarding “GATGATTGTTCTCCCAGCTGATGAATTCAAAAAATCGAGTAAACAAATTTTCCTAATCTTTCTGTTCAAGCGCCATCTAC”, the binding signal (RPM ratio (pull-down/input)) was determined as 0.155.

Consider “GATGATTGTTCTCCCAGCTGATGAATTTCTCGTCTCGAGTAAACAAATTTTCCTAATCTTTCTGTTCAAGCGCCATCTAC”, for which the binding signal (RPM ratio (pull-down/input)) came out at 0.277.

With “GATGATTGTTCTCCCAGCTGATGAATTACGCGAGTCGAGTAAACAAATTTTCCTAATCTTTCTGTTCAAGCGCCATCTAC”, the binding signal (RPM ratio (pull-down/input)) turned out to be 0.787.

As to “GATGATTGTTCTCCCAGCTGATGAATTCACGCTTTCGAGTAAACAAATTTTCCTAATCTTTCTGTTCAAGCGCCATCTAC”, the binding signal (RPM ratio (pull-down/input)) was determined as 1.11.

In the case of “GATGATTGTTCTCCCAGCTGATGAATTCCTGGCCTCGAGTAAACAAATTTTCCTAATCTTTCTGTTCAAGCGCCATCTAC”, the binding signal (RPM ratio (pull-down/input)) turned out to be 0.303.

As to “GATGATTGTTCTCCCAGCTGATGAATTGTTATGGTCGAGTAAACAAATTTTCCTAATCTTTCTGTTCAAGCGCCATCTAC”, the binding signal (RPM ratio (pull-down/input)) is 3.05.

As to “GATGATTGTTCTCCCAGCTGATGAATTCGCTCGCTCGAGTAAACAAATTTTCCTAATCTTTCTGTTCAAGCGCCATCTAC”, the binding signal (RPM ratio (pull-down/input)) is 0.27.

On to “GATGATTGTTCTCCCAGCTGATGAATTCGCTGAATCGAGTAAACAAATTTTCCTAATCTTTCTGTTCAAGCGCCATCTAC”, for which the binding signal (RPM ratio (pull-down/input)) is 0.249.

Consider “GATGATTGTTCTCCCAGCTGATGAATTGTAAACCTCGAGTAAACAAATTTTCCTAATCTTTCTGTTCAAGCGCCATCTAC”, for which the binding signal (RPM ratio (pull-down/input)) came out at 0.86.

For the sequence “GATGATTGTTCTCCCAGCTGATGAATTTACACGGTCGAGTAAACAAATTTTCCTAATCTTTCTGTTCAAGCGCCATCTAC”, the binding signal (RPM ratio (pull-down/input)) came out at 0.384.

As to “GATGATTGTTCTCCCAGCTGATGAATTAGTAGGATCGAGTAAACAAATTTTCCTAATCTTTCTGTTCAAGCGCCATCTAC”, the binding signal (RPM ratio (pull-down/input)) is 0.437.

Turning to “GATGATTGTTCTCCCAGCTGATGAATTGTGGTGATCGAGTAAACAAATTTTCCTAATCTTTCTGTTCAAGCGCCATCTAC”, the binding signal (RPM ratio (pull-down/input)) worked out at 1.16.
